Whole data set: some 33,000 sequences, median “E-score (-0.5 to 0.5)” near -0.054, cut for the highest 2% near 0.39. Some of the results follow.
Each sequence was assayed against Ylr278c (UniProt Q05854) (assay: PBM E-score (8-mer binding enrichment) (E-score (-0.5 to 0.5)); higher = stronger / more preferred TF binding; most listed sequences are background and not binding sites). Conditions: protein concentration: 200 nM; construct: GST-DNA-binding domain.
How it was run: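 Full-length yeast transcription factors or their DNA-binding domains, GST-tagged and expressed with PURExpress, were applied at about 100-200 nM to universal all-10-mer Agilent arrays. These arrays had been made double-stranded by primer extension on fresh or once-stripped slides. Detection used fluorescent anti-GST, normalisation used masliner, and E-scores for ungapped eight-base words pooled with reverse complements came from the Universal PBM Analysis Suite.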

Sequence | PBM E-score
CCGAACTC | 0.165
AGTGCAGG | -0.104
AGATACCA | 0.0255
AGCGGAAA | 0.358
ACTCTCAT | -0.132
CCATGTAA | 0.0732
TAAGGCAA | -0.0891
ATACCTTA | -0.112
TCAGGCCA | -0.112
AGTGTTAG | -0.115
AGTCATTG | -0.277
CCACGGCA | 0.138
GGGCTTAC | 0.0645
AAGGTGTG | -0.119
CCCCTCAA | -0.0006
CTACGTCC | 0.0551
GTACCCCA | 0.066
ACAGGGCT | -0.323
ACATTACC | 0.108
ACGTAGCC | -0.111
ATTTAAGA | -0.154
ATTAGCCA | -0.299
GTCTATCA | -0.0954
CCGGGGAC | 0.242
ACAGGAAA | 0.054

Sequence | PBM E-score
ACCTCGAA | -0.134
ACATGATA | -0.0375
GCTGTTCA | -0.292
ACAGAATA | -0.0396
GAATACAC | -0.0158
GCAAGTGA | -0.212
TAGGACAA | -0.233
AGGTTACA | -0.124
CCCGTGGC | 0.0225
GCCACCTA | -0.232
AATCCAAA | 0.142
CATGGGCA | -0.274
GTGCAGCA | -0.0636
AATTCACG | -0.0176
AAGTAGGG | -0.139
CAACCTAC | -0.0449
AACTTTTC | -0.0461
AGGGCCGG | 0.239
AACTGGGC | -0.0654
AACATCCC | 0.147
GGGACGCA | -0.28
CAGTATTA | -0.0204
ACGAGAAT | -0.039
AATTGACC | 0.0785
CGCACTAG | -0.0868

Sequence | PBM E-score
CTATCCCC | 0.0184
CGCTCTAG | -0.113
CAGGACGA | -0.102
AGGTTCCC | -0.0971
AAACTGCA | -0.043
ACCGGAAG | 0.388
AGAGCTAT | -0.214
CCTACTGC | -0.219
CATCCCTA | -0.0767
GTCTACAC | -0.00271
AACTAACA | -0.0111
AATATCCG | 0.423
GTCAGTAA | -0.188
AGTAACCA | -0.077
AACCACTC | -0.128
CGAGCGAC | -0.0219
AAGCATCT | -0.0745
CCCTATCA | -0.19
ACAATTGT | -0.199
ACCTATGA | -0.261
CGCGTTTC | 0.0125
AGCGGTGC | -0.18
GATATTAC | 0.0972
CATGCAGA | -0.211
AATCGTAT | -0.151

Sequence | PBM E-score
CTAGGCTA | -0.193
AGCGGCAC | 0.115
AGGTGTAG | -0.123
AAATATTC | 0.0188
GGGTAACC | -0.0903
CGAGTAAA | 0.0658
GTCTGGGA | -0.341
AAATAGAA | -0.00131
CCCTTGGC | -0.251
CGATTTAG | 0.251
GGCACTAC | -0.0733
AAGTCGGT | 0.113
GCGCTAAA | 0.0854
GTTCGTTA | -0.185
CGGTTGAG | 0.047
GAGTCGCC | 0.0773
ACTATTCC | 0.279
ATGTGCGG | 0.224
GGTACTGA | -0.0854
GGCCGAGA | 0.272
TGCTGGAA | -0.0626
ACCTTGCC | -0.158
ACGCCAAC | -0.116
GGCGTTGA | -0.0134
CAACACAG | -0.243

Sequence | PBM E-score
GTTACTGA | 0.204
AGAACACG | 0.125
AACGCGTA | -0.0626
CCAAGTGC | -0.0885
GACCCGGA | 0.391
GACATGGC | -0.0968
CATACCCG | 0.115
GGAATCAA | 0.0795
ACACGCCC | -0.00341
GAGTACAA | 0.114
ATAGTGAA | -0.0766
CGGACAAC | 0.389
CCCGAGCA | -0.0534
CGAACGGA | 0.312
CACATGAC | -0.257
AATAATGT | -0.0681
AAAAGCTG | -0.239
ACAAACAT | -0.0192
CCAGAGTC | -0.149
GTAACGCA | -0.0544
ACACGGGT | -0.105
ATTCAGTA | -0.0597
ATGTCTTA | -0.314
CCAGCTAA | -0.289
GACCGGCA | 0.258

Sequence | PBM E-score
GTGATGAA | -0.124
ACCTACAC | -0.344
TCCCAAGA | -0.0481
GTAATGCA | -0.189
CGTGTTTA | -0.0255
CGCGGACA | 0.345
CGCTTTAC | 0.0246
AACGGGGA | 0.115
GCCAAGGA | -0.155
GCCTGCGA | -0.145
GCAATTGA | 0.104
TCATCCAA | -0.183
AATGAACT | 0.0841
CTGTTAGC | -0.0068
GCGGGAGA | 0.28
ACTAAATC | 0.148
CAGTATAG | -0.0684
AAAGATGA | -0.132
CACACGGC | 0.254
CAATCACC | 0.0638
AAGATGAC | -0.26
AGATTGAG | -0.0312
GGAAGTGA | 0.104
CGCGCGCC | 0.176
CAAAACGC | 0.174

Sequence | PBM E-score
ATAAGTAC | -0.156
ACAGAGGC | -0.199
CCAAGGCG | -0.0697
ATTAAGGG | -0.142
GACACCGC | 0.178
CCGCAGAC | 0.164
CGTTTTTC | 0.076
TGAGTGCA | -0.0987
AAGAAGGA | -0.167
GAGTCAAC | -0.162
AAGGATAT | 0.00861
AATTAGGA | 0.0501
AATTTTTA | 0.0164
AACACCCG | 0.208
ACACCGCA | 0.233
CCCGCAAG | -0.157
CACTCTTA | -0.226
GACACCTC | 0.093
GCCCGGGC | 0.356
GCGTGTCA | 0.0799
ACTCCAGA | -0.112
CTTGAAAC | 0.196
CTTCGACA | -0.212
AGAACGAT | -0.205
ACTAGTAG | -0.169

Sequence | PBM E-score
ATGCGCAC | -0.0276
CGGAATAC | 0.423
ACACTCTA | -0.0725
ATCGTACA | -0.153
AGGTCTCA | -0.123
CATCCTAG | -0.279
AGGAAGAG | -0.0944
ACCCGTCT | -0.0407
ACGGAGAG | 0.336
TCCTCACA | -0.107
TACTAAAA | 0.0322
GAGAGTGA | -0.165
AAATGTCA | 0.00522
GGGAAACA | 0.0989
CCGAACGA | 0.257
AGCCCGCG | 0.256
AATGTATG | -0.076
ATTTTTTA | 0.114
GATCGCCA | -0.0483
TGTCGGAA | 0.384
CATCCATG | -0.168
GACCGGAA | 0.389
CAAACGAC | 0.00801
AAAGCGTG | -0.0745
AGGGCGAA | -0.00214

Sequence | PBM E-score
CCAGCCCA | -0.134
CCTGAGGC | -0.168
CCACACGC | -0.00547
GACCACGC | -0.0704
TCTCGCCA | -0.0779
CGTGCTAC | -0.141
ACCTGGTC | 0.0533
CAAGTAAA | 0.0501
CGTTGTTC | 0.119
CTGGTAGA | -0.0605
CGGGGTAA | 0.365
CCATCCAA | -0.132
CATTCGGA | 0.339
ACAATTTC | 0.0194
ATCTGCCG | 0.33
GCTTCCGA | 0.29
CTCTGTAA | -0.219
ATATGGTG | -0.172
GACCAGTA | -0.0849

Reference: the supplement of paper PMC3334620
